Source: a collection of fitness landscapes (doi:10.1016/j.celrep.2020.107928)
Over roughly 81,000 sequences, “one-hybrid fitness for binding NBS DNA” has its median near -0.1; the highest 2% begin near 0.36. The list shows a part of the results.

B1: Caulobacter ParB omega fusion; a variant is named by its letters at X, in order, B8GW30 (parent)
chain: MESVVVGEPGMSEGRRGLGRGLSALLGEVDAAPAQAPGEQLGGSREAPIEILQRNPDQPRRTFREEDLEDLSNSIREKGVLQPILVRPSPDTAGEYQIVAGERAWRAAQRAGLKTVPIMVRELDDLAVLEIGIIENVQRADLNVLEEALSYKVLMEKFERTQENIAQTIGKSXSHVANXMRLLXLPDEVQSYLVSGELTAXHARAIAAAADPVALAKQIIEGGLSVRETEALARKAPNLSAGKSKGGRPPRVKDTDTQALESDLSSVLGLDVSIDHRGSTGTLTITYATLEQLDDLCNRLTRGI

Variants of: B1
Assay: one-hybrid fitness for binding NBS DNA (the Noc-binding site; scaled: cognate 1, non-cognate 0); higher = stronger binding
Settings: with NBS DNA site
Summary of the method: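 On M9-minus-histidine containing 0.1 mM IPTG and 5 mM 3-AT, E. coli USO cells with a HIS3 reporter, site 19 bp from the promoter, grew 48 hours at 37°C to select Caulobacter ParB libraries randomised at four specificity codons. Plasmids from before and after were Illumina-sequenced, with three replicate libraries pooled and variants under 10 reads left out. Fitness is the log change in variant-to-wild-type read ratio, rescaled against cognate and non-cognate.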

one-hybrid fitness for binding NBS DNA, 0.32:
QDNI

one-hybrid fitness for binding NBS DNA, 0.4:
QKRM

one-hybrid fitness for binding NBS DNA, ≤ 0.2:
YYNS
QNHA
RAPE
EVAD
KTNH
ARTV
LRAI
LQEC
PPMA
GFQT
AKVC
QCDC
LQSC
ACKA
KEHL
VINV
PTSM
QEAG
RHLN
NNIL
SNCI
CLAC
CMTC
SYAY
NKED
TVRL
RVGG
DRPS
FVDR
FCRG
MSRS
CEVW
IWNS
DALE
LPQC
EQDT
RTPD
LLHC
PGVC
SAPD
SSMR
KITY
SVHD
LKGL
QTLW
QAFQ
RQRQ
WTSS
WVNS
MYHY
MGLY
IGCR
PWGK
KLSC
TRQF
ETNE
YRML
TSDG
DYCG
QNLL
NDKC
HYPG
NLRS
NNLM
DYLG
QNSS
PKYW
IIAT
PISV
KRWD
RKDQ
CWKY
LNYR
RSNP
YLKH
PSHF
PMNR
NFPI
LGDL
SKYY
CEQI
WGAR
CPTC
KMRF
QSFI
MKHC
AYTE
PQNL
TCVS
SLNY
QNCC
KALP
PNHM
SHSA
QTMQ
KSPI
RTIK
MLPL
DQRF
TFGD
SEVF
KRCY
PHLS
QQPF
PPTD
TQWV
PVLA
DNNF
NADR
QMNC
QHHQ
TIAT
KTST
TELC
CPYI
FGPS
SFHI
MGRS
WYYC
ITTT
NMHR
DLPK
EASS
MCMY
ASEF
VPGF
KHTC
MRPA
ELNS
KAPE
KITC
DVER
QGWN
MECS
AANW
CSIN
VITL
QKVW
YWKC
CHDR
QCAM
KAYR
WTPT
HNNC
RFWV
GEKT
TNDW
LVIM
FCAG
SESR
FIWG
MDHY
LYMH
QSTV
MIKI
LERV
VRPC
LRHS
NTVH
RVPE
ICFR
RYPE
GDHG
IWRM
LKII
SIHG
RFVQ
PPPT
MLNR
RNNK
KKRG
RDSQ
IQTG
YRLR
VDRI
CHDG
WWQS
LITM
EAHN
HDPC
NTVW
MLIR
NATT
MRIW
YGVC
FSRR
AVPK
QYMA
KGMW
QSDL

one-hybrid fitness for binding NBS DNA, 0.438:
QRHM

one-hybrid fitness for binding NBS DNA, 0.259:
TRCT

one-hybrid fitness for binding NBS DNA, 0.258:
RKRN
